# Measured values as given in PubChem BioAssay AID504832 (National Center for Advancing Translational Sciences (NCATS), 2011).
# In all, about 310,000 compounds went through this assay and about 18,000 (5.8%) were called active. The shares of active, inactive and inconclusive entries below differ from those in the screen. The call rests on the fitted dose curve; in most records, active means well fitted inhibition curve with a large enough effect; inconclusive means small, poorly fitted or top-dose-only effect, or another doubt; inactive means no such curve, though single readings can be large or run the other way. Potencies of inconclusive entries are left out as doubtful fits.
# Experiment: Primary qHTS for delayed death inhibitors of the malarial parasite plastid, 48 hour incubation
# Conditions: P. falciparum luciferase growth in erythrocytes; series mostly up to 28.7 µM
# Summary of the method: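 Parasite viability was followed by luminescence of a genomically integrated firefly luciferase. Cultures held 0.1% parasitemia at 2% hematocrit (final), incubated under 5% CO2 at 37 C.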
# Potency means the concentration at half of the fitted maximal effect; tags describe the fitted curve by direction and shape.
row,Structure (SMILES),Potency
1,CCc1ccc(-c2csc(NC(=O)c3cccnc3)n2)cc1,"inconclusive [inhibitor, single point]"
2,C=CCNc1nc2c3ccccc3n(C(C)=O)c2s1,"inconclusive [inhibitor, single point]"
3,COC(=O)c1ccc(C(C2C(=O)CC(C)(C)CC2=O)C2C(=O)CC(C)(C)CC2=O)cc1,"inconclusive [inhibitor, partial curve, poor fit]"
4,O=C(N=NC(=O)c1ccc2c(O)n(CC3CCCO3)c(O)c2c1)c1cccnc1 (centres undefined),"inconclusive [inhibitor, single point]"
5,Cc1onc(-c2ccccc2Cl)c1C(=O)Nc1ccccc1,inactive
6,CCOc1ccc(N/C=C/C(=O)c2ccc(OC)cc2)c([N+](=O)[O-])c1,inactive
7,NS(=O)(=O)c1cccc(NC(=O)CCN2C(=O)C3CCCCC3C2=O)c1 (centres undefined),"inconclusive [inhibitor, single point]"
8,COc1ccc(S(=O)(=O)N2CCOCC2)cc1NC(=O)CSc1nnc2c(n1)[nH]c1ccccc12,"inconclusive [inhibitor, partial curve, poor fit]"
9,COc1ccc(-c2cc(C(F)(F)F)n3nc(C(=O)NCCN4CCOCC4)cc3n2)cc1,"inconclusive [inhibitor, partial curve, poor fit]"
10,NC1=NC2(CCCCC2)N=C(Nc2ccc(Br)cc2)N1,active: 1.04 µM
11,CCCOc1ccc(N2CC(C(=O)Nc3ccccc3C(=O)NCc3ccco3)CC2=O)cc1 (centres undefined),active: 9.28 µM
12,CS(=O)(=O)N(CC(=O)Nc1ccc2c(c1)OCO2)Cc1ccc(Cl)cc1,inactive
13,N#C/C(=C\c1ccccc1)C(=O)N1CCN(c2ccccc2F)CC1,"inconclusive [inhibitor, partial curve, poor fit]"
14,COc1cc2cc(CN(CCO)S(=O)(=O)c3ccccc3)c(=O)[nH]c2cc1OC,inactive
15,CCOC(=O)c1ccc(NC(=O)CCNS(=O)(=O)c2cc(Br)cnc2N)cc1,"inconclusive [inhibitor, partial curve]"
16,Cc1cccc2c1NC(=O)C21N2CCCC2C(C(=O)c2ccc3ccccc3c2)C12C(=O)Nc1ccccc12 (centres undefined),"inconclusive [inhibitor, single point]"
17,Clc1ccccc1-c1ccc2ncnc(NCc3ccc4c(c3)OCO4)c2c1,active: 8.28 µM
18,COC(=O)c1ccc(C(=O)N=c2sccn2C)cc1,inactive
19,CC(=O)Nc1cc(C(F)(F)F)ccc1Oc1cccc(Br)c1,"inconclusive [inhibitor, partial curve, poor fit]"
